In a collection of fitness landscapes (doi:10.1126/science.1257360):
The other results are listed elsewhere or left out.

B1: PhoQ; a variant is named by its letters at X, in order, P23837 (parent)
chain: MKKLLRLFFPLSLRVRFLLATAAVVLVLSLAYGMVALIGYSVSFDKTTFRLLRGESNLFYTLAKWENNKLHVELPENIDKQSPTMTLIYDENGQLLWAQRDVPWLMKMIQPDWLKSNGFHEIEADVNDTSLLLSGDHSIQQQLQEVREDDDDAEMTHSVAVNVYPATSRMPKLTIVVVDTIPVELKSSYMVWSWFIYVLSANLLLVIPLLWVAAWWSLRPIEALAKEVRELEEHNRELLNPATTRELTSLVRNLNRLLKSERERYDKYRTTLTDLTHSLKTPLXXLQXXLRSLRSEKMSVSDAEPVMLEQISRISQQIGYYLHRASMRGGTLLSRELHPVAPLLDNLTSALNKVYQRKGVNISLDISPEISFVGEQNDFVEVMGNVLDNACKYCLEFVEISARQTDEHLYIVVEDDGPGIPLSKREVIFDRGQRVDTLRPGQGVGLAVAREITEQYEGKIVAGESMLGGARMEVIFGRQHSAPKDE

Variants of: B1
Assay: enrichment ratio after two sorts for PhoP signalling (ratio (wild type AVST 3.29)); higher = more functional
Details: with PhoP (E. coli)

Row | Variant | enrichment ratio
1 | KEMH | ≤ 0.25
2 | MRWW | ≤ 0.25
3 | GTCK | ≤ 0.25
4 | IEGY | ≤ 0.25
5 | VTLW | ≤ 0.25
6 | RSMP | ≤ 0.25
7 | PQVM | ≤ 0.25
8 | MFQI | ≤ 0.25
9 | IHHV | ≤ 0.25
10 | PPWR | ≤ 0.25
11 | MFAD | ≤ 0.25
12 | QEML | ≤ 0.25
13 | KDSC | ≤ 0.25
14 | DGWT | ≤ 0.25
15 | NDGC | ≤ 0.25
16 | HVCK | ≤ 0.25
17 | IPAA | ≤ 0.25
18 | HDLK | ≤ 0.25
19 | YECT | 3.66
20 | YCLC | 0.294
21 | AMNR | ≤ 0.25
22 | SRYY | ≤ 0.25
23 | ELGF | ≤ 0.25
24 | RRTN | ≤ 0.25

Row | Variant | enrichment ratio
25 | RYAG | ≤ 0.25
26 | SPEP | ≤ 0.25
27 | SKAQ | ≤ 0.25
28 | GHVW | ≤ 0.25
29 | PSKK | ≤ 0.25
30 | GRIL | ≤ 0.25
31 | ARYG | ≤ 0.25
32 | LQWY | ≤ 0.25
33 | PIPP | ≤ 0.25
34 | FIGF | ≤ 0.25
35 | KHVQ | ≤ 0.25
36 | GPAH | ≤ 0.25
37 | HNGI | ≤ 0.25
38 | DVLK | ≤ 0.25
39 | QNYL | ≤ 0.25
40 | SDAN | 2.41
41 | WCSS | ≤ 0.25
42 | SPPD | ≤ 0.25
43 | RVPV | ≤ 0.25
44 | AKTE | ≤ 0.25
45 | LDRR | ≤ 0.25
46 | NDVK | ≤ 0.25
47 | PEQG | ≤ 0.25
48 | TPYV | ≤ 0.25

Row | Variant | enrichment ratio
49 | IYST | ≤ 0.25
50 | TPQN | ≤ 0.25
51 | QGRC | ≤ 0.25
52 | FTKT | ≤ 0.25
53 | HGQM | ≤ 0.25
54 | DIYP | ≤ 0.25
55 | GDFD | ≤ 0.25
56 | MLLH | ≤ 0.25
57 | AGKP | ≤ 0.25
58 | DSCH | ≤ 0.25
59 | PFEP | ≤ 0.25
60 | DVMQ | ≤ 0.25
61 | YMPR | ≤ 0.25
62 | MQWS | 1.53
63 | QLFL | ≤ 0.25
64 | NKPI | ≤ 0.25
65 | GGKM | ≤ 0.25
66 | RRTF | ≤ 0.25
67 | EYIQ | ≤ 0.25
68 | FLPL | ≤ 0.25
69 | WSWN | ≤ 0.25
70 | YVDL | ≤ 0.25
71 | LWYV | ≤ 0.25
72 | DFIR | ≤ 0.25

Row | Variant | enrichment ratio
73 | FMDE | ≤ 0.25
74 | AHQG | ≤ 0.25
75 | GGFS | ≤ 0.25
76 | LMCR | ≤ 0.25
77 | IDGS | ≤ 0.25
78 | KNMA | ≤ 0.25
79 | MNTP | ≤ 0.25
80 | VIMK | ≤ 0.25
81 | SIAR | 11.2
82 | GQRD | ≤ 0.25
83 | RHCW | ≤ 0.25
84 | WRGR | ≤ 0.25
85 | ASYW | ≤ 0.25
86 | GCGR | ≤ 0.25
87 | FTPQ | ≤ 0.25
88 | AEYK | ≤ 0.25
89 | TKNL | 4.01
90 | RCQN | ≤ 0.25
91 | AQDC | ≤ 0.25
92 | EPCG | ≤ 0.25
93 | VNWH | ≤ 0.25
94 | LQGK | ≤ 0.25
95 | IQPR | ≤ 0.25
96 | NPFC | ≤ 0.25

Row | Variant | enrichment ratio
97 | VMKK | ≤ 0.25
98 | FTQP | ≤ 0.25
99 | YYEV | ≤ 0.25
100 | ANCV | 3.79
101 | VMWC | ≤ 0.25
102 | AFMH | ≤ 0.25
103 | LAFC | ≤ 0.25
104 | SLLT | 4.46
105 | AGEI | ≤ 0.25
106 | DYEW | ≤ 0.25
107 | NCHM | ≤ 0.25
108 | MYPY | ≤ 0.25
109 | HFDP | ≤ 0.25
110 | WSLL | 7.48
111 | LWHN | ≤ 0.25
112 | HAPF | ≤ 0.25
113 | DLRF | ≤ 0.25
114 | VTVQ | ≤ 0.25
115 | GWSA | ≤ 0.25
116 | SRHT | ≤ 0.25
117 | PVYR | ≤ 0.25
118 | QAWQ | ≤ 0.25
119 | RAWH | ≤ 0.25
120 | TMHD | ≤ 0.25

Row | Variant | enrichment ratio
121 | AQTC | 9.55
122 | YSAR | ≤ 0.25
123 | IKWV | ≤ 0.25
124 | TAFD | ≤ 0.25
125 | VDYS | ≤ 0.25
126 | NMHD | ≤ 0.25
127 | FPTY | ≤ 0.25
128 | NNSF | ≤ 0.25
129 | HSRF | ≤ 0.25
130 | IPSD | ≤ 0.25
131 | QIWE | ≤ 0.25
132 | KVEA | ≤ 0.25
133 | VNSV | 6.18
134 | SIGS | 4.81
135 | KTCA | ≤ 0.25
136 | QGPQ | ≤ 0.25
137 | PDPN | ≤ 0.25
138 | GFLD | ≤ 0.25
139 | MLPF | ≤ 0.25
140 | NQYM | ≤ 0.25
141 | PLYA | ≤ 0.25
142 | PFKV | ≤ 0.25
143 | VHVT | ≤ 0.25
144 | IKAH | ≤ 0.25

Row | Variant | enrichment ratio
145 | SDRG | ≤ 0.25
146 | AGDY | ≤ 0.25
147 | LIPA | ≤ 0.25
148 | HWCY | ≤ 0.25
149 | PSLR | ≤ 0.25
150 | TNCA | 8.8
151 | TECV | 22.2
152 | PQPR | ≤ 0.25
153 | AIWI | ≤ 0.25
154 | LQGP | ≤ 0.25
155 | IPNM | ≤ 0.25
156 | VRMI | ≤ 0.25
157 | AETV | 22.9
158 | YQYN | ≤ 0.25
159 | PFCQ | ≤ 0.25
160 | MPPW | ≤ 0.25
161 | HKVF | ≤ 0.25
162 | WQHV | ≤ 0.25
163 | QAFQ | ≤ 0.25
164 | FSEY | ≤ 0.25
165 | FHGV | ≤ 0.25
166 | MNPD | ≤ 0.25
167 | MAVQ | ≤ 0.25
168 | IIGY | ≤ 0.25

Row | Variant | enrichment ratio
169 | GFPV | ≤ 0.25
170 | EGRF | ≤ 0.25
171 | FLTA | ≤ 0.25
172 | NKHG | ≤ 0.25
173 | PSQY | ≤ 0.25
174 | MDWR | ≤ 0.25
175 | WQPV | ≤ 0.25
176 | IQTD | ≤ 0.25
177 | MARA | ≤ 0.25
178 | LLYP | ≤ 0.25
179 | FQWL | ≤ 0.25
180 | HHHH | ≤ 0.25
181 | DLAV | ≤ 0.25
182 | MNQS | ≤ 0.25
183 | GLMW | ≤ 0.25
184 | INFY | ≤ 0.25
185 | NYPE | ≤ 0.25
186 | AGKF | ≤ 0.25
187 | AHPA | ≤ 0.25
188 | MSTE | ≤ 0.25
189 | HTCM | ≤ 0.25
190 | FKEC | ≤ 0.25
191 | WKYR | ≤ 0.25
192 | EYHN | ≤ 0.25

Row | Variant | enrichment ratio
193 | TLCY | ≤ 0.25
194 | EAHD | ≤ 0.25
195 | TDHE | ≤ 0.25
196 | NAGW | ≤ 0.25
197 | LLTY | ≤ 0.25
198 | LRHK | ≤ 0.25
199 | WEHA | ≤ 0.25
200 | LWVD | ≤ 0.25
201 | FDGQ | ≤ 0.25
202 | WDYQ | ≤ 0.25
203 | SNRR | ≤ 0.25
204 | DKIM | ≤ 0.25
205 | HEDI | ≤ 0.25
206 | YEGW | ≤ 0.25
207 | MNAM | 1.4
208 | LWVS | ≤ 0.25
209 | YEMP | ≤ 0.25
210 | NGHD | ≤ 0.25
211 | KYLL | ≤ 0.25
212 | VVRV | ≤ 0.25
213 | QEPL | ≤ 0.25
214 | EAMA | ≤ 0.25
215 | LCHG | ≤ 0.25
216 | KCKA | ≤ 0.25

Row | Variant | enrichment ratio
217 | FLYF | ≤ 0.25
218 | VIWL | ≤ 0.25
219 | WFHR | ≤ 0.25
220 | GIYC | 0.526
221 | WYKA | ≤ 0.25
222 | LYVE | ≤ 0.25
223 | AEKR | ≤ 0.25
224 | TWCD | ≤ 0.25
225 | GSDI | ≤ 0.25
226 | NMDM | ≤ 0.25
227 | RQDC | ≤ 0.25
228 | SHDW | ≤ 0.25
229 | VGRC | ≤ 0.25
230 | ICNA | ≤ 0.25
231 | ERVD | ≤ 0.25
232 | EHRC | ≤ 0.25
233 | CVSM | ≤ 0.25
234 | LFQV | ≤ 0.25
235 | YFPR | ≤ 0.25
236 | SAIN | 11.8
237 | PYAW | ≤ 0.25
238 | GRPE | ≤ 0.25
239 | YANR | ≤ 0.25
240 | TRGN | ≤ 0.25

Row | Variant | enrichment ratio
241 | WHQL | ≤ 0.25
242 | SMKS | ≤ 0.25
243 | YEMD | ≤ 0.25
244 | PRSK | ≤ 0.25
245 | MACS | ≤ 0.25
246 | FRLV | ≤ 0.25
247 | DLVE | ≤ 0.25
248 | STTE | 1.13
249 | FAGT | ≤ 0.25
250 | NMDC | ≤ 0.25
251 | KYVL | ≤ 0.25
252 | VMQD | ≤ 0.25
253 | SPHL | ≤ 0.25
254 | HRYM | ≤ 0.25
255 | PDAH | ≤ 0.25
256 | SNDE | ≤ 0.25
257 | EYFM | ≤ 0.25
258 | EFKP | ≤ 0.25
259 | LHHH | ≤ 0.25
260 | FDPV | ≤ 0.25
261 | LRYS | ≤ 0.25
262 | VYLQ | ≤ 0.25
263 | LNKK | ≤ 0.25
264 | FGGW | ≤ 0.25

Row | Variant | enrichment ratio
265 | DGHW | ≤ 0.25
266 | CLMI | ≤ 0.25
267 | RPII | ≤ 0.25
268 | LKHH | ≤ 0.25
269 | QYYM | ≤ 0.25
270 | FFWQ | ≤ 0.25
271 | EICT | ≤ 0.25
272 | MTID | ≤ 0.25
273 | RDTD | ≤ 0.25
274 | IKVQ | ≤ 0.25
275 | VTNP | 0.491
276 | ICIC | ≤ 0.25
277 | SLRP | ≤ 0.25
278 | PYDA | ≤ 0.25
279 | NHGW | ≤ 0.25
280 | PLIA | ≤ 0.25
281 | SVRW | ≤ 0.25
282 | ETAW | ≤ 0.25
283 | IPEM | ≤ 0.25
284 | KNTD | ≤ 0.25
285 | IIWL | ≤ 0.25
286 | PMRW | ≤ 0.25
287 | LWGI | ≤ 0.25
288 | TVHK | ≤ 0.25

Row | Variant | enrichment ratio
289 | EPFN | ≤ 0.25
290 | MNHW | ≤ 0.25
291 | RVML | ≤ 0.25
292 | RKWW | ≤ 0.25
293 | WSDD | ≤ 0.25
294 | DNRH | ≤ 0.25
295 | QTLN | ≤ 0.25
296 | IRFF | 0.314
297 | FYWY | ≤ 0.25
298 | YITD | ≤ 0.25
299 | MSVV | 3.96
300 | MVLD | ≤ 0.25
301 | GHFL | ≤ 0.25
302 | RWRG | ≤ 0.25
303 | SCYT | 0.513
304 | LPHR | ≤ 0.25
305 | PRRN | ≤ 0.25
306 | YWAD | ≤ 0.25
